Source: PubChem BioAssay AID624172 (National Center for Advancing Translational Sciences (NCATS), 2012)
Hit rate of the full screen: of about 380,000 compounds, about 25 (0.007%) were called active. This list was built around the results that the source calls inconclusive (neither active nor inactive); the mix of calls is not that of the screen. The call rests on the fitted dose curve; in most records, active means well fitted activation curve with a large enough effect; inconclusive means small, poorly fitted or top-dose-only effect; inactive means no such curve, though single readings can be large or run the other way. Potencies of inconclusive entries are left out as doubtful fits.

Biological target: Glucagon-like peptide 1 receptor (Homo sapiens) (UniProt P43220)
Assay: qHTS of GLP-1 Receptor Agonists
Conditions: HEK293 GLP-1R CRE-luciferase, luminescence, 4-6 h, cells express a hypersensitive GLP-1R form; series mostly up to 45.6 µM
Potency means the concentration at half of the fitted maximal effect; tags describe the fitted curve by direction and shape.

Chain of UniProt P43220 (P43220 whole entry, looked up): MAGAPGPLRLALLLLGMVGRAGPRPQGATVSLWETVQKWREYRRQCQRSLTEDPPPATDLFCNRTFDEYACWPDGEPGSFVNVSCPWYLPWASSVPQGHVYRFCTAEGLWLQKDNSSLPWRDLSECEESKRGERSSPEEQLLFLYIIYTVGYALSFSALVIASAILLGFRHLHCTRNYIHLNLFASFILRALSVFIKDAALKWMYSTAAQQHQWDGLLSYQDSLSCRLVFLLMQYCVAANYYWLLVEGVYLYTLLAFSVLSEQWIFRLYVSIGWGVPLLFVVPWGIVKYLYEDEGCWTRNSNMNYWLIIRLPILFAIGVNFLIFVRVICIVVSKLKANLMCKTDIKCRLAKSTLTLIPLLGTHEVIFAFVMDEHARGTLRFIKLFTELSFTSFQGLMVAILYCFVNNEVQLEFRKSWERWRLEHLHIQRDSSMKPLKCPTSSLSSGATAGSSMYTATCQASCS

Row | SMILES | Potency
1 | Cc1ccc(/C=C2\SC(=S)N(CC3CCCO3)C2=O)o1 (stereo not given) | inactive
2 | CCOc1ccc(Nc2nc3ccccc3n2C)cc1 | inconclusive [activator, single point]
3 | Cc1nc2ncccn2c1-c1csc(Nc2ccc(N(C)C)cc2)n1 | inconclusive [activator, partial curve, poor fit]
4 | Cc1n[nH]c(=S)n1/N=C/c1ccccc1OCc1ccc(Cl)cc1 | inconclusive [activator, partial curve, poor fit]
5 | CCOc1cccc(/C=C/c2ccc3cccc(O)c3n2)c1O | inconclusive [activator, single point]
6 | O=C1C=C(N2CCOCC2)c2ccccc2C1=O | inactive
7 | COc1cc2c(cc1OC)-c1cc(Nc3ccccc3C)nc(=O)n1CC2 | inconclusive [activator, partial curve]
8 | COc1cc2c(cc1OC)C(CSc1ccccc1C(=O)O)=NC(C)(C)C2 | inconclusive [activator, partial curve, poor fit]
9 | Cc1ccc(C(C(=O)NC2CCCC2)N(C(=O)Cc2cccs2)c2ccc3c(c2)OCCO3)cc1 (stereo not given) | inactive
10 | CC1CCc2nc(NC(=O)c3ccc(S(=O)(=O)N4CCCc5ccccc54)cc3)sc2C1 (stereo not given) | inactive
11 | C=CCN(C(=O)c1oc2c(Cl)cc(C)cc2c1C)C1CCS(=O)(=O)C1 (stereo not given) | inconclusive [activator, single point]
12 | c1ccc(-n2ncc3c(NCc4cccs4)ncnc32)cc1 | inactive
13 | NC(=O)CSc1nnc(-c2cccs2)n1Cc1ccco1 | inactive
14 | COc1ccccc1C/C(N)=N/OC(=O)c1ccc2c(c1)OCO2 | inconclusive [activator, partial curve, poor fit]
15 | CN(C)c1nc(OCCOC(=O)Nc2ccc(Cl)cc2Cl)nc(N(C)C)n1 | inconclusive [activator, partial curve]
16 | COc1ccc2cc(/C=C/C(=O)N3CCN(CC(=O)N4CCCCCC4)CC3)ccc2c1 | inactive
17 | COc1ccc(Cn2c(C)nc3oc4cc(OC)ccc4c(=O)c3c2=O)cc1 | inactive
18 | CC(C)Cn1cnc2c(SCc3ccccc3)nc(N)nc21 | inconclusive [activator, partial curve, poor fit]
19 | CCN(CC)c1ccc(N2C(=O)/C(=C/c3ccccn3)SC2=S)cc1 | inconclusive [activator, partial curve, poor fit]
20 | COC(=O)c1sccc1NC(=O)Cc1ccc(Br)cc1 | inconclusive [activator, single point]
